Measured values taken from US8653237B2, “Peptide analogues” (MannKind Corporation, priority 2005, dated 2014).
Part of at least one peptide drawing is inferred or uncertain, most often the ends. Square brackets hold non-standard residues; d marks the D form. Ends that are not written are not given here. Peptide text beside a SMILES is read from it. Phe(4-NO2) = N[C@@H](Cc1ccc([N+](=O)[O-])cc1)C(=O)O; Phe(4-F) = N[C@@H](Cc1ccc(F)cc1)C(=O)O; Bta = N[C@@H](Cc1csc2ccccc12)C(=O)O; Phg = N[C@H](C(=O)O)c1ccccc1; Nva = CCC[C@H](N)C(=O)O

test system: T cell lines against natural epitope SSX-241-49; assay: Cross-reactivity and functional avidity: IFN-gamma production by T cell lines raised against natural SSX-2 41-49; format: cell-based, HHD transgenic mice; settings: T cells raised against native SSX-2 41-49 stimulated with analog, native = 1, lower = more active

Compound	Cross-reactivity and fct avidity (native to analogs)
CC[C@H](C)[C@H](NC(=O)[C@H](CCCCN)NC(=O)[C@H](CCC(=O)O)NC(=O)[C@H](CO)NC(=O)[C@@H](NC(=O)[C@@H](N)Cc1ccccc1)C(C)C)C(=O)N[C@@H](Cc1ccccc1)C(=O)N[C@H](C(=O)N[C@H](C(=O)O)C(C)C)c1ccccc1 [SSX2 41-49 (K41F, A42V, Y48Phg), FVSEKIF(Phg)V] (H-FVSEKIF[Phg]V-OH)	>10
CC[C@H](C)[C@H](NC(=O)[C@H](CCCCN)NC(=O)[C@H](CCC(=O)O)NC(=O)[C@H](CO)NC(=O)[C@H](C)NC(=O)[C@H](N)CCCCN)C(=O)N[C@@H](Cc1ccccc1)C(=O)N[C@@H](Cc1ccc(O)cc1)C(=O)N[C@H](C(=O)O)C(C)C [SSX2 41-49 (K41(D-Lys))]	>10
CC[C@H](C)[C@H](NC(=O)[C@H](CCCCN)NC(=O)[C@H](CCC(=O)O)NC(=O)[C@H](CO)NC(=O)[C@H](CC(C)C)NC(=O)[C@H](N)CCCCN)C(=O)N[C@@H](Cc1ccccc1)C(=O)N[C@@H](Cc1ccc(O)cc1)C(=O)N[C@H](C(=O)O)C(C)C [SSX2 41-49 (K41(D-Lys), A42L)]	10
WMSEKIFYV [SSX2 41-49 (K41W, A42M)]	1
FVSEKIFYV [SSX2 41-49 (K41F, A42V)]	0.1
CC[C@H](C)[C@H](NC(=O)[C@H](CCCCN)NC(=O)[C@H](CCC(=O)O)NC(=O)[C@H](CO)NC(=O)[C@@H](NC(=O)[C@@H](N)Cc1ccccc1)C(C)C)C(=O)N[C@@H](Cc1ccccc1)C(=O)N[C@@H](Cc1ccc(O)cc1)C(=O)NC(C)(C)C(=O)O [SSX2 41-49 (K41F, A42V, V49Aib)]	>10
FVSEKIFYM [SSX2 41-49 (K41F, A42V, V49M)]	>10
CC[C@H](C)[C@H](NC(=O)[C@H](CCCCN)NC(=O)[C@H](CCC(=O)O)NC(=O)[C@H](CO)NC(=O)[C@@H](NC(=O)[C@@H](N)Cc1ccc(O)cc1)[C@@H](C)CC)C(=O)N[C@@H](Cc1ccccc1)C(=O)N[C@@H](Cc1ccc(O)cc1)C(=O)N[C@H](C(=O)O)C(C)C [SSX2 41-49 (K41Y, A42I)]	1
KVSEKIFYI [SSX2 41-49 (A42V, V49I)]	0.3
KLSEKIFYI [SSX2 41-49 (A42L, V49I)]	0.03
CCC[C@H](NC(=O)[C@H](Cc1ccc(O)cc1)NC(=O)[C@H](Cc1ccccc1)NC(=O)[C@@H](NC(=O)[C@H](CCCCN)NC(=O)[C@H](CCC(=O)O)NC(=O)[C@H](CO)NC(=O)[C@@H](NC(=O)[C@@H](N)Cc1ccccc1)C(C)C)[C@@H](C)CC)C(=O)O [SSX2 41-49 (K41F, A42V, V49Nva)]	0.1
CC[C@H](C)[C@H](NC(=O)[C@H](CCCCN)NC(=O)[C@H](CO)NC(=O)[C@H](CO)NC(=O)[C@@H](NC(=O)[C@@H](N)Cc1ccccc1)C(C)C)C(=O)N[C@@H](Cc1ccccc1)C(=O)N[C@@H](Cc1ccc(O)cc1)C(=O)N[C@H](C(=O)O)C(C)C [SSX2 41-49 (K41F, A42V, E44S)]	>10
FVSDKIFYV [SSX2 41-49 (K41F, A42V, E44D)]	>10
FVSNKIFYV [SSX2 41-49 (K41F, A42V, E44N)]	>10
FVSEKIFTV [SSX2 41-49 (K41F, A42V, Y48T)]	>10
CC[C@H](C)[C@H](NC(=O)[C@H](CCCCN)NC(=O)[C@H](CCC(=O)O)NC(=O)[C@H](CO)NC(=O)[C@@H](NC(=O)[C@H](N)CCCCN)C(C)C)C(=O)N[C@@H](Cc1ccccc1)C(=O)N[C@@H](Cc1ccc(O)cc1)C(=O)N[C@H](C(=O)O)C(C)C [SSX2 41-49 (K41(D-Lys), A42V)]	10
CC[C@H](C)[C@H](NC(=O)[C@H](CCCCN)NC(=O)[C@H](CCC(=O)O)NC(=O)[C@H](CO)NC(=O)[C@@H](NC(=O)[C@@H](N)Cc1ccccc1)C(C)C)C(=O)N[C@@H](Cc1ccccc1)C(=O)N[C@@H](Cc1ccc(O)cc1)C(=O)N[C@@H](CC(C)C)C(=O)O [SSX2 41-49 (K41F, A42V, V49L)]	>10
CC[C@H](NC(=O)[C@@H](N)CCCCN)C(=O)N[C@@H](CO)C(=O)N[C@@H](CCC(=O)O)C(=O)N[C@@H](CCCCN)C(=O)N[C@H](C(=O)N[C@@H](Cc1ccccc1)C(=O)N[C@@H](Cc1ccc(O)cc1)C(=O)N[C@H](C(=O)O)C(C)C)[C@@H](C)CC [SSX2 41-49 (A42(Abu)), KAbuSEKIFYV]	0.3

Compound	Cross-reactivity and fct avidity (native to analogs)
KISEKIFYV [SSX2 41-49 (A42I)]	3
CCC[C@H](NC(=O)[C@H](CCCCN)NC(=O)[C@H](CCC(=O)O)NC(=O)[C@H](CO)NC(=O)[C@@H](NC(=O)[C@@H](N)Cc1ccccc1)C(C)C)C(=O)N[C@@H](Cc1ccccc1)C(=O)N[C@@H](Cc1ccc(O)cc1)C(=O)N[C@H](C(=O)O)C(C)C [SSX2 41-49 (K41F, A42V, I46Nva), FVSEK(Nva)FYV] (H-FVSEK[Nva]FYV-OH)	1
KASEKIFYI [SSX2 41-49 (V49I)]	10
WLSEKIFYV [SSX2 41-49 (K41W, A42L)]	0.3
CCC[C@H](NC(=O)[C@@H](N)CCCCN)C(=O)N[C@@H](CO)C(=O)N[C@@H](CCC(=O)O)C(=O)N[C@@H](CCCCN)C(=O)N[C@H](C(=O)N[C@@H](Cc1ccccc1)C(=O)N[C@@H](Cc1ccc(O)cc1)C(=O)N[C@H](C(=O)O)C(C)C)[C@@H](C)CC [SSX2 41-49 (A42(Nva)), KNvaSEKIFYV]	0.1
CC[C@H](C)[C@H](NC(=O)[C@H](CCCCN)NC(=O)[C@H](CCC(=O)O)NC(=O)[C@H](CO)NC(=O)[C@H](C)NC(=O)[C@@H](N)Cc1ccc([N+](=O)[O-])cc1)C(=O)N[C@@H](Cc1ccccc1)C(=O)N[C@@H](Cc1ccc(O)cc1)C(=O)N[C@H](C(=O)O)C(C)C [SSX2 41-49 (K41(Phe-4NO2))] (H-[Phe(4-NO2)]ASEKIFYV-OH)	3
CC[C@H](C)[C@H](NC(=O)[C@H](CCCCN)NC(=O)[C@H](CCC(=O)O)NC(=O)[C@H](CO)NC(=O)[C@H](CCSC)NC(=O)[C@@H](N)Cc1ccccc1)C(=O)N[C@@H](Cc1ccccc1)C(=O)N[C@@H](Cc1ccc(O)cc1)C(=O)N[C@H](C(=O)O)C(C)C [SSX2 41-49 (K41F, A42M)]	3
CC[C@H](C)[C@H](NC(=O)[C@H](CCCCN)NC(=O)[C@H](CCC(=O)O)NC(=O)[C@H](CO)NC(=O)[C@@H](NC(=O)[C@@H](N)Cc1c[nH]c2ccccc12)[C@@H](C)CC)C(=O)N[C@@H](Cc1ccccc1)C(=O)N[C@@H](Cc1ccc(O)cc1)C(=O)N[C@H](C(=O)O)C(C)C [SSX2 41-49 (K41W, A42I)]	0.1
CC[C@H](C)[C@H](NC(=O)[C@H](CCCCN)NC(=O)[C@H](CCC(=O)O)NC(=O)[C@H](CO)NC(=O)[C@H](C)NC(=O)[C@@H](N)Cc1ccc(F)cc1)C(=O)N[C@@H](Cc1ccccc1)C(=O)N[C@@H](Cc1ccc(O)cc1)C(=O)N[C@H](C(=O)O)C(C)C [SSX2 41-49 (K41(Phe-4F))] (H-[Phe(4-F)]ASEKIFYV-OH)	3
CC[C@H](C)[C@H](NC(=O)[C@H](CCCCN)NC(=O)[C@H](CCC(=O)O)NC(=O)[C@H](CO)NC(=O)[C@H](Cc1ccc2ccccc2c1)NC(=O)[C@@H](N)CCCCN)C(=O)N[C@@H](Cc1ccccc1)C(=O)N[C@@H](Cc1ccc(O)cc1)C(=O)N[C@H](C(=O)O)C(C)C [SSX2 41-49 (A42(Nal-2)), KNal-2SEKIFYV]	3
CC[C@H](C)[C@H](NC(=O)[C@H](CCCCN)NC(=O)[C@H](CCC(=O)O)NC(=O)[C@H](CO)NC(=O)[C@@H](C)NC(=O)[C@@H](N)CCCCN)C(=O)N[C@@H](Cc1ccccc1)C(=O)N[C@@H](Cc1ccc(O)cc1)C(=O)N[C@@H](C(=O)O)C(C)C [SSX2 41-49 (A42a, V49v), K(D-Ala)SEKIFY(D-Val)]	>10
CC[C@H](C)[C@H](NC(=O)[C@H](CCCCN)NC(=O)[C@H](CCC(=O)O)NC(=O)[C@H](CO)NC(=O)[C@@H](NC(=O)[C@@H](N)Cc1ccccc1)C(C)C)C(=O)N[C@@H](Cc1ccccc1)C(=O)N[C@@H](Cc1ccccc1)C(=O)N[C@H](C(=O)O)C(C)C [SSX2 41-49 (K41F, A42V, Y48F)]	10
CC[C@H](C)[C@H](NC(=O)[C@H](CCCCN)NC(=O)[C@H](CCC(=O)O)NC(=O)[C@H](CO)NC(=O)[C@H](C)NC(=O)[C@@H](N)Cc1csc2ccccc12)C(=O)N[C@@H](Cc1ccccc1)C(=O)N[C@@H](Cc1ccc(O)cc1)C(=O)N[C@H](C(=O)O)C(C)C [SSX2 41-49 (K41(b-(3-benzothienyl)A1a))] (H-[Bta]ASEKIFYV-OH)	10
FVSEKVFYV [SSX2 41-49 (K41F, A42V, I46V)]	1
CC[C@H](C)[C@H](NC(=O)[C@H](CCCCN)NC(=O)[C@H](CCC(=O)O)NC(=O)[C@H](CO)NC(=O)[C@@H](NC(=O)[C@@H](N)Cc1ccccc1)C(C)C)C(=O)N[C@@H](Cc1ccccc1)C(=O)N[C@@H](Cc1ccc(O)cc1)C(=O)N[C@@H](C)C(=O)O [SSX2 41-49 (K41F, A42V, V49A)]	1
CC[C@H](C)[C@H](NC(=O)[C@H](CCCCN)NC(=O)[C@H](CCC(=O)O)NC(=O)[C@H](CO)NC(=O)[C@@H](C)NC(=O)[C@@H](N)CCCCN)C(=O)N[C@@H](Cc1ccccc1)C(=O)N[C@@H](Cc1ccc(O)cc1)C(=O)N[C@H](C(=O)O)C(C)C [SSX2 41-49 (A42(D-Ala)), K(D-Ala)SEKIFYV]	10
CCCC[C@H](NC(=O)[C@H](Cc1ccc(O)cc1)NC(=O)[C@H](Cc1ccccc1)NC(=O)[C@@H](NC(=O)[C@H](CCCCN)NC(=O)[C@H](CCC(=O)O)NC(=O)[C@H](CO)NC(=O)[C@@H](NC(=O)[C@@H](N)Cc1ccccc1)C(C)C)[C@@H](C)CC)C(=O)O [SSX2 41-49 (K41F, A42V, V49Nle)]	>10
